{"source": "PubChem BioAssay AID894", "about": "(National Center for Advancing Translational Sciences (NCATS), 2007)", "note": "In all, about 150,000 compounds went through this assay and about 6,500 (4.3%) were called active. Inconclusive results, whose numbers are uncertain, are shown with a selection of clear calls. The call rests on the fitted dose curve; in most records, active means well fitted inhibition curve with a large enough effect (not every such curve was filed as active); inconclusive means small, poorly fitted or top-dose-only effect, or another doubt; inactive means no such curve, though single readings can be large or run the other way. Potencies of inconclusive entries are left out as doubtful fits. On the % scale 0 is the no-effect control and ±100 the full control effect; potency means the concentration at half of the fitted maximal effect; tags describe the fitted curve by direction and shape."}
{"target": "15-hydroxyprostaglandin dehydrogenase [NAD(+)] (Homo sapiens) (UniProt P15428)", "sequence (P15428 whole entry, looked up)": "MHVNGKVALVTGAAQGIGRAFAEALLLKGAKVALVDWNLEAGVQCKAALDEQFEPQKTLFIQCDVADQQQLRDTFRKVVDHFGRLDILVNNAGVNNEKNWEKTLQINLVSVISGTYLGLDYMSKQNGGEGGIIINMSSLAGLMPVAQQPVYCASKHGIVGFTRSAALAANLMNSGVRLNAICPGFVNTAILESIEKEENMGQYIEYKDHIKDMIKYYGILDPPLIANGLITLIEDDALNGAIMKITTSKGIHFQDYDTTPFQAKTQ", "assay": "qHTS Assay for Inhibitors of HPGD (15-Hydroxyprostaglandin Dehydrogenase)", "details": "purified HPGD, NADH fluorescence kinetic, PGE2 substrate; activity change, negative = inhibition: stronger effect = lower value", "method_in_brief": "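20 nM HPGD preincubated 15 min at room temperature with compound in 50 mM Tris-HCl pH 8, 0.01% Tween 20. Started with 1 mM NAD+ and 30 uM prostaglandin E2; NADH fluorescence (360/450 nm) read 5 times over 30-s intervals, last minus first.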"}
{"smiles": "COC(=O)[C@H]1CC2(CC=C(C)C)C(=O)[C@@](CC=C(C)C)(C(=O)C(C(=O)c3ccccc3)=C2OC)C1(C)C", "note": "(tested in a mixture with another compound)", "activity change, negative = inhibition": "inactive: -3.98%"}
{"smiles": "N#Cc1cccc(NC(=O)N2CCC(c3nc4c(nnn4Cc4cccc(Cl)c4)c(=O)[nH]3)CC2)c1", "Potency": "active: 10 µM"}
{"smiles": "CCCc1cc(=O)[nH]c(SCc2ccc(Cl)cc2)n1", "Potency": "active: 15.8 µM"}
{"smiles": "O=c1[nH]c(C2CCCN(S(=O)(=O)c3ccc(F)cc3)C2)nc2c1nnn2Cc1ccccc1", "note": "(centres undefined)", "Potency": "active: 12.6 µM"}
{"smiles": "NC(=O)c1ccccc1NC(=S)NC(=O)CCc1ccccc1", "Potency": "active: 28.2 µM"}
{"smiles": "O=C(OCCN1CCN(c2ncc(C(F)(F)F)cc2Cl)CC1)c1ccc(F)cc1", "activity change, negative = inhibition": "inactive: -3.44%"}
{"smiles": "CCCn1c(N)c(C(=O)CSc2nnc(Cc3ccccc3)o2)c(=O)n(C)c1=O", "activity change, negative = inhibition": "inactive: -9.84%"}
{"smiles": "COc1cc2c(cc1NC(=O)COc1ccc3ccccc3c1)oc1ccccc12", "Potency": "inconclusive [inhibitor, partial curve]"}
{"smiles": "CC1(C(=O)N(c2ccccc2)C(C(=O)NC2CCCC2)c2ccccn2)CC(=O)N=C2C=CC=CN21", "note": "(centres undefined)", "Potency": "inconclusive [inhibitor, partial curve]"}
{"smiles": "O=c1ncccn1[C@@H]1O[C@H](CO)C(O)[C@@H]1O", "note": "(some centres undefined)", "activity change, negative = inhibition": "inactive: -25.6%"}
{"smiles": "COc1cc2cc(C(=O)O)n(C)c2c(OC)c1OC", "Potency": "inconclusive [inhibitor, partial curve]"}
{"smiles": "COc1cc(/C=N/n2cnnc2)ccc1OS(=O)(=O)c1ccccc1[N+](=O)[O-]", "activity change, negative = inhibition": "inactive: -20.2%"}
{"smiles": "O=C(Nc1nccs1)c1cc(-c2ccccc2)nc2ccccc12", "Potency": "active: 17.8 µM"}
{"smiles": "Cc1ccc(NNC(=S)Nc2ccc(C(C)C)cc2)c(C)c1", "Potency": "inconclusive [inhibitor, single point]"}
{"smiles": "O=c1c2cc(Cl)ccc2oc2nc3n(c(=O)c12)CCCS3", "Potency": "inconclusive [inhibitor, partial curve]"}
{"smiles": "O=C(Cn1nc(-c2ccccc2F)ccc1=O)Nc1ccc(S(=O)(=O)N2CCCCCC2)cc1", "Potency": "active: 31.6 µM"}
{"smiles": "COc1cccc(/C=N/NC(=O)CO/N=C(\\C)c2cccs2)c1OC", "Potency": "inconclusive [inhibitor, single point]"}
{"smiles": "CCCCCCN1N=C(C)C(C(=O)c2ccc(Cl)cc2)C1=O", "note": "(centres undefined)", "activity change, negative = inhibition": "inactive: -4.14%"}
{"smiles": "O=c1c(-c2cc(F)cc(F)c2)nc2cnc(N3CCOCC3)nc2n1-c1ccccc1", "Potency": "inconclusive [inhibitor, partial curve]"}
{"smiles": "COc1ccccc1-n1nnnc1SCc1cc2c(cc1Br)OCO2", "Potency": "inconclusive [inhibitor, partial curve]"}
{"smiles": "CCC(CC)C(=O)Nc1cccc(/C(C)=N\\NC(=O)c2ccc(C)s2)c1", "Potency": "inconclusive [inhibitor, partial curve]"}
{"smiles": "Cc1ccc(C)c(N2CCN(C(=O)CCNC(=O)Cn3ccc4ccccc4c3=O)CC2)c1", "Potency": "inconclusive [inhibitor, partial curve]"}
{"smiles": "C=CCn1c(Cc2cccs2)nnc1SCC(=O)c1ccc2ccccc2c1", "Potency": "inconclusive [inhibitor, partial curve]"}
{"smiles": "O=C(CSc1ccccc1)NCc1ccco1", "Potency": "active: 28.2 µM"}
{"smiles": "CCOC(=O)C1=C(C)N(CCCC(=O)O)C(=O)NC1c1ccccc1OS(=O)(=O)c1ccc(C)cc1", "note": "(centres undefined)", "Potency": "inconclusive [inhibitor, partial curve, poor fit]"}
{"smiles": "O=C1OCCN1C(=O)[C@H]1[C@H](c2ccccc2)C(c2ccccc2)=NN1c1ccc(Br)cc1", "Potency": "inconclusive [inhibitor, partial curve]"}
{"smiles": "C=CCNC(=S)NNc1nc2c(c(=O)[nH]1)C1(CCCCC1)Cc1ccccc1-2", "Potency": "inconclusive [inhibitor, partial curve]"}
{"smiles": "COc1ccc(-c2cc(C(F)(F)F)nc(N3CCOCC3)n2)cc1OC", "Potency": "inconclusive [inhibitor, partial curve]"}
{"smiles": "COC(=O)c1ccccc1NC(=O)c1ccc(-c2cccc(Cl)c2)o1", "Potency": "inconclusive [inhibitor, partial curve]"}
{"smiles": "O=C(Cn1cc2c(n1)CCCC2)NCc1cccs1", "Potency": "inconclusive [inhibitor, partial curve]"}
{"smiles": "COc1ccc(-c2cc(C(F)(F)F)n3nc(C)cc3n2)cc1", "Potency": "inconclusive [inhibitor, partial curve]"}
{"smiles": "CC1(C)Cc2c(ccc3ccccc23)C(=O)N1", "Potency": "inconclusive [inhibitor, partial curve]"}
{"smiles": "CC1(C(=O)NCCCNc2ncc(C(F)(F)F)cc2Cl)C=CC2(CCCCC2)N1C(=O)c1ccccc1", "note": "(centres undefined)", "activity change, negative = inhibition": "inactive: -26.5%"}
{"smiles": "Cc1nc2sc3c(c2c(=O)[nH]1)CCC3", "activity change, negative = inhibition": "inactive: -15.4%"}
{"smiles": "COC(=O)c1cc(C(=O)NCCN2C(=O)S/C(=C\\c3cccs3)C2=O)cc([N+](=O)[O-])c1", "activity change, negative = inhibition": "inactive: -15.5%"}
{"smiles": "O=C(OCc1ccc([N+](=O)[O-])cc1)C1CCN(S(=O)(=O)c2ccccc2)CC1", "activity change, negative = inhibition": "inactive: -3.52%"}
{"smiles": "Cc1cccn2c(=O)c3cc(C(=O)O)n(C)c3nc12", "Potency": "inconclusive [inhibitor, partial curve]"}
{"smiles": "CSc1nc(-c2ccccc2)nn1C(=O)c1ccccc1", "Potency": "inconclusive [inhibitor, single point]"}
{"smiles": "CCCCCn1c(=NC(=O)c2ccco2)c(C(=O)OCC)cc2c(=O)n3ccccc3nc21", "Potency": "inconclusive [inhibitor, partial curve]"}
{"smiles": "CCCC(=O)NCCc1ccc(F)cc1", "Potency": "inconclusive [inhibitor, partial curve]"}
{"smiles": "Cc1nnc2n(Cc3ccccc3)c(=O)c3c4c(sc3n12)COC(C)(C)C4", "Potency": "active: 15.8 µM"}
{"smiles": "COc1ccc(Cn2c(C3CC3)nc3ccc(NC(=O)C4CC4)cc3c2=O)cc1", "Potency": "inconclusive [inhibitor, partial curve]"}
{"smiles": "CCCC(C)NC1=NCCCCC1", "note": "(centres undefined)", "activity change, negative = inhibition": "inactive: -3.99%"}
{"smiles": "COc1ccccc1N1CCN(C(CNC(=O)C2CCCCC2)c2cccnc2)CC1", "note": "(centres undefined)", "activity change, negative = inhibition": "inactive: 5.29%"}
{"smiles": "COc1cc(NC(=O)c2cccs2)c(C(=O)OCC(=O)NC(=O)NCc2ccccc2)cc1OC", "Potency": "inconclusive [inhibitor, partial curve]"}
{"smiles": "CCOc1ccc(S(=O)(=O)NCC(=O)N(C)Cc2cccnc2)cc1", "Potency": "inconclusive [inhibitor, single point]"}
{"smiles": "CCc1cc2c(=O)c(Oc3ccccc3)c(C)oc2cc1O", "Potency": "inconclusive [inhibitor, partial curve]"}
{"smiles": "COc1cc(CC(=O)N/N=C/c2ccccc2)c([N+](=O)[O-])cc1OC", "Potency": "inconclusive [inhibitor, partial curve]"}
{"smiles": "O=C(CN1CCC(c2nc3ccccc3s2)CC1)NCc1cccs1", "Potency": "inconclusive [inhibitor, partial curve]"}
{"smiles": "O=C(Nc1ccccc1N1CCN(C(=O)c2ccccc2)CC1)c1cc2ccccc2o1", "Potency": "inconclusive [inhibitor, single point]"}
{"smiles": "CC(=O)c1ccc(N2Cc3ccccc3/C2=N\\C(=O)Nc2ccccc2)cc1", "activity change, negative = inhibition": "inactive: -7.47%"}
{"smiles": "Nc1nn(-c2ccccc2)c(N)c1N=Nc1ccccc1F", "Potency": "active: 12.6 µM"}
{"smiles": "Cc1ccccc1OCCNC(=O)CNC(=O)c1ccccc1O", "Potency": "inconclusive [inhibitor, partial curve]"}
{"smiles": "Cc1ccc2c(c1)c1c3n2CC(=C2C(=O)OC(C)(C)OC2=O)NC3CCC1", "note": "(centres undefined)", "activity change, negative = inhibition": "inactive: -17%"}
{"smiles": "CCOC(=O)c1sc2nc(NC(=O)C3CCCCC3)sc2c1C", "Potency": "inconclusive [inhibitor, single point]"}
{"smiles": "Cc1ccccc1N(CC(=O)NCC1CCCO1)C(=O)C1(C)CC(=O)N=C2C=CC=CN21", "note": "(centres undefined)", "Potency": "inconclusive [inhibitor, partial curve]"}
{"smiles": "COc1cc(/C=C(\\C#N)c2[nH]nc(N)c2C#N)cc(OC)c1O", "Potency": "active: 15.8 µM"}
{"smiles": "COc1ccc2c(c1)cc1n2CCN2CCCN=C12", "Potency": "inconclusive [inhibitor, single point]"}
{"smiles": "CCc1ccc2[nH]c(=O)c(C(c3nnnn3Cc3ccco3)N3CCC(C)CC3)cc2c1", "note": "(centres undefined)", "Potency": "inconclusive [inhibitor, single point]"}
{"smiles": "Cc1ccc(C)c(NC(=O)Cc2csc(-c3ccccc3)n2)c1", "activity change, negative = inhibition": "inactive: -5.06%"}
{"smiles": "C/C(=N\\N=C\\c1ccc(N(C)C)cc1)c1cccc([N+](=O)[O-])c1", "activity change, negative = inhibition": "inactive: -10.1%"}
{"smiles": "Cc1ccc2c(c1)[nH]c1c(N3CCN(Cc4ccccc4)CC3)ncnc12", "Potency": "inconclusive [inhibitor, partial curve]"}
{"smiles": "COc1ccccc1/C=C/C(=O)NC(=S)N(C)C1CCCCC1", "Potency": "inconclusive [inhibitor, single point]"}
{"smiles": "COCCN(C(=O)Cc1cccs1)C(C(=O)NCc1ccc(OC)cc1)c1ccccc1", "note": "(centres undefined)", "activity change, negative = inhibition": "inactive: -6.2%"}
{"smiles": "CC(=O)c1sc(N/N=C\\c2cccc(Br)c2)nc1C", "Potency": "active: 28.2 µM"}
{"smiles": "c1coc(CNc2nc(N3CCCCC3)nc3ccccc23)c1", "Potency": "inconclusive [inhibitor, partial curve]"}
{"smiles": "Cc1ccc(Cn2nnc3c(=O)n(CC(=O)c4ccccc4)cnc32)cc1", "Potency": "inconclusive [inhibitor, single point]"}
{"smiles": "O=C(O)C(Cc1ccccc1)N1C(=O)/C(=C/c2cccc3ccccc23)SC1=S", "note": "(centres undefined)", "Potency": "active: 14.1 µM"}
{"smiles": "CC1CCN(c2c(NCc3ccc(C(=O)N4CCc5ccccc54)cc3)c(=O)c2=O)CC1", "Potency": "active: 17.8 µM"}
